From patent US20040002425A1, “Triketone derivatives and herbicides” (Idemitsu Kosan Co., Ltd., priority 1998, published 2004)
At least one read-out could not be matched to a standard name with certainty.

Tests used:
[1] = system: Scirups juncoides; experiment: Biological Test 1 (soaking in water/treatment on the 3rd day after transplantation): weed-killing effect on Scirups juncoides; assay type: in vivo, Scirpus juncoides; settings: Treatment performed 3 days after transplantation, examined on the 30th day after treatment
[2] = system: Echinochloa crug-galli; experiment: Biological Test 2 (soaking in water/treatment on the 10th day after transplantation): weed-killing effect on barnyard grass; assay type: in vivo, Echinochloa crus-galli; settings: Treatment performed 10 days after transplantation, examined on the 30th day after treatment
[3] = system: Echinochloa crug-galli; experiment: Biological Test 1 (soaking in water/treatment on the 3rd day after transplantation): weed-killing effect on barnyard grass; assay type: in vivo, Echinochloa crus-galli; settings: Treatment performed 3 days after transplantation, examined on the 30th day after treatment
[4] = system: Scirups juncoides; experiment: Biological Test 2 (soaking in water/treatment on the 10th day after transplantation): weed-killing effect on Scirups juncoides; assay type: in vivo, Scirpus juncoides; settings: Treatment performed 10 days after transplantation, examined on the 30th day after treatment

Compound	Weed-killing effect, Scirups juncoides ([1]; dose 100 g/ha)	Weed-killing effect, Scirups juncoides ([1]; dose 200 g/ha)	Weed-killing effect, Echinochloa crug-galli ([2]; dose 100 g/ha)	Weed-killing effect, Echinochloa crug-galli ([2]; dose 200 g/ha)	Weed-killing effect, Echinochloa crug-galli ([3]; dose 100 g/ha)	Weed-killing effect, Echinochloa crug-galli ([3]; dose 200 g/ha)	Weed-killing effect, Scirups juncoides ([4]; dose 100 g/ha)	Weed-killing effect, Scirups juncoides ([4]; dose 200 g/ha)
O=C1CCCC(O)=C1C(=O)c1cc2c(cc1[N+](=O)[O-])OCO2 [Comparative Example I-1, reference compound]	4 (70% or more and less than 90%)	5 (90% or more (almost completely withered))	0 (less than 5% (almost no effect))	3 (40% or more and less than 70%)	5 (90% or more (almost completely withered))	5 (90% or more (almost completely withered))	1 (5% or more and less than 20%)	2 (20% or more and less than 40%)
O=C1CCCC(O)=C1C(=O)c1cccc2c1OCCO2 [Comparative Example I-2, reference compound]	0 (less than 5% (almost no effect))	1 (5% or more and less than 20%)	0 (less than 5% (almost no effect))	0 (less than 5% (almost no effect))	0 (less than 5% (almost no effect))	1 (5% or more and less than 20%)	0 (less than 5% (almost no effect))	0 (less than 5% (almost no effect))
Cc1cc(C(=O)C2=C(O)CCCC2=O)c(C)c2c1S(=O)(=O)CC2C (centres unmarked) [Comparative Example I-3, reference compound]	3 (40% or more and less than 70%)	4 (70% or more and less than 90%)	3 (40% or more and less than 70%)	5 (90% or more (almost completely withered))	4 (70% or more and less than 90%)	5 (90% or more (almost completely withered))	2 (20% or more and less than 40%)	3 (40% or more and less than 70%)
Cc1cc(C(=O)C2=C(O)CCCC2=O)c(C)c2c1S(=O)(=O)C(C)C2 (centres unmarked) [Comparative Example I-4, reference compound]	3 (40% or more and less than 70%)	3 (40% or more and less than 70%)	1 (5% or more and less than 20%)	2 (20% or more and less than 40%)	3 (40% or more and less than 70%)	5 (90% or more (almost completely withered))	1 (5% or more and less than 20%)	2 (20% or more and less than 40%)
